For 100 compounds, cell count results are on record in PubChem BioAssay AID1656 (Sanford-Burnham Center for Chemical Genomics, 2009).

The list shows a part of the results. Further columns of the screen follow, without active or inactive calls. Compounds called inactive in the main read-out are mostly missing here.

This experiment is described as follows: inhibitors of hepatocyte lipid droplet formation, primary screen, imaging, high-throughput imaging, BODIPY stain (AID 1656).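 Also: cells counted across two imaged fields per well.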 The settings on record: AML12 mouse hepatocytes, oleate lipid droplets, measured here: cell count, cytotoxicity flag, at 6.5 µM. A digest of the protocol: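 Material – AML12 mouse liver cells · Also added – oleate loading, 100 µM · Compound dosing – 6.5 µM single-point dosing · Times – overnight treatment with compound plus oleate · Measured by – fluorescence imaging, 20x objective, two fields per well · Read-out – percent inhibition of filter-corrected integrated lipid droplet intensity per well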
The compound `Nn1c(SCC(=O)Nc2nc3ccccc3s2)nncc1=O` displayed a cell count of 277 cells. The figure for `O=C1CN(C(=O)Cn2ncc(Cl)c(Cl)c2=O)c2ccccc2N1` is 321 cells; for `O=Nc1c(-c2c(O)[nH]c3cc(Br)ccc23)[nH]c2ccccc12` it is 822 cells.

Take `CCOC(=O)C(NC(=O)c1cccc(Cl)c1)(OCc1ccccc1)C(F)(F)F` (stereo not given): the cell count is 655 cells.

On to `COc1ccc(C)cc1S(=O)(=O)N(CC(=O)O)c1ccc(C)cc1`, for which the cell count came out at 846 cells. `O=[N+]([O-])c1cc(Cl)ccc1NCCNc1ncc(C(F)(F)F)cc1Cl` came in with a cell count of 710 cells. The figure for `COc1cc(/C=N/NC(=O)c2ccc3ccccc3c2)ccc1Oc1ccc([N+](=O)[O-])cn1` is 640 cells; for `CCOC(=O)c1ccc(S(=O)(=O)NCC(c2ccc(N(C)C)cc2)c2c[nH]c3ccccc23)cc1` (stereo not given) it is 605 cells; for `O=C(Nc1nc(-c2ccc(Cl)cc2Cl)cs1)C1CCCO1` (stereo not given) it is 631 cells. As for `CC1CC(C)CN(C(=O)c2ccc3c(c2NCCO)C(=O)c2ccccc2C3=O)C1` (stereo not given), the cell count stood at 737 cells. Next, `O=[N+]([O-])c1ccccc1N/N=C\c1ccccc1Cl`: 669 cells; `COc1cccc(-c2cn(-c3cccc(C(F)(F)F)c3)c(=S)[nH]2)c1`: 709 cells.

In turn, `CCSC(=O)N(CC)CC(=O)Nc1c(CC)cccc1CC` registered a cell count of 668 cells. Compound `Cc1sc(NC(=S)NC(=O)CCc2ccccc2)c(C(N)=O)c1C` yielded a cell count of 214 cells.

For the compound `O=C(Nc1cccc(Br)c1)c1cccc(OC(=S)N2CCOCC2)c1`, the cell count was 692 cells.

`CC1(C)Oc2ccc3ccc(=O)oc3c2/C(=C/Nc2ccc(O)cc2)C1=O`: the cell count was determined as 702 cells. Next, `Cc1ccc(NC(=S)N/N=C/c2c(Cl)cccc2Cl)c(C)c1`: 207 cells. Consider `CCOC(=O)c1[nH]c2c(c1C)C(=O)CC(c1ccco1)C2` (stereo not given), for which the cell count is 129 cells.

On to `Cc1[nH]n(-c2ccccc2)c(=O)c1N=Nc1ccc(Cl)cc1`, for which the cell count stood at 842 cells. The figure for `COC(=O)Cn1c(O)c(N=NC(=O)CNC(=O)COc2cccc(C)c2)c2ccccc21` is 707 cells. Next, `Cc1ccc(C2/C(=C(/O)c3cnn(-c4ccccc4)c3C)C(=O)C(=O)N2CCCN2CCOCC2)o1` (stereo not given): 685 cells; `CCN1C(=O)/C(=C/c2ccc(N3CCCC3)cc2)NC1=S`: 676 cells; `COc1cccc(CNC(=O)CCNC(=O)C2CCN(S(=O)(=O)c3ccccc3)CC2)c1`: 672 cells.

As to `CCOC(=O)C(C)Oc1cccc2c(=O)n(CC(=O)NCc3ccco3)ccc12` (stereo not given), the cell count is 120 cells. Regarding `COc1cc(C(=O)N/N=C/c2cc([N+](=O)[O-])cs2)cc(OC)c1OC`, the cell count worked out at 261 cells. The figure for `Cc1cc(C)cc(NC(=O)CSc2nc3[nH]ncc3c(=O)[nH]2)c1` is 274 cells. Next, `COc1ccc(-c2csc(NC(=O)c3ccc(OCC(=O)N4CCOCC4)c(OC)c3)n2)cc1OC`: 650 cells; `CC/C(=N/Nc1ccccc1Cl)c1cnnc(-c2ccccc2)n1`: 767 cells; `Oc1ccc2ccccc2c1N=Nc1ccccc1F`: 782 cells.

`COc1ccc2c(c1)c(CC(=O)Nc1ccc(C)cc1)c(C)n2C(=O)c1ccc(Cl)cc1` showed a cell count of 762 cells.

In turn, `CN(C)S(=O)(=O)c1ccc(C(=O)Nc2nnc(SCc3cccc4ccccc34)s2)cc1` had a cell count of 172 cells. The figure for `Cc1cccc(N(C)S(=O)(=O)c2ccc(-c3cnc(C4CC4)o3)cc2)c1` is 175 cells. The figure for `CCc1c(C#N)c(SCCC(=O)Nc2ccc(OC)cc2)nc2c1C(=O)CC(C)(C)C2` is 737 cells; for `COc1ccc(N=C/C=C2/C=C(c3ccccc3)OC(C)(C)O2)cc1` it is 739 cells; for `CCOc1ccc(CCNC(=O)CCS(=O)(=O)c2ccc(OC)cc2)cc1OCC` it is 700 cells. The figure for `COc1ccc(-c2nc3c(c4nnc(SC(C)C(=O)Nc5ccccc5)n24)COC(C)(C)C3)cc1` (stereo not given) is 732 cells; for `CCC(NC(=O)c1cc(COc2cncc(Cl)c2)on1)c1ccncc1` (stereo not given) it is 739 cells; for `CCOc1ccc(CCNC(=O)CSCc2ccc(C)cc2)cc1OCC` it is 717 cells.

Consider `NC(=O)N/N=C\c1cc(Br)ccc1O`, for which the cell count amounted to 226 cells. The figure for `CC(/C=N/NC(=O)c1cc(-c2ccncc2)nc2ccccc12)=C\c1ccco1` is 193 cells; for `CCCCCOc1ccc(Br)cc1/C(C)=N/NC1=NCCN1` it is 99 cells; for `C=CCC(=O)N1CCC(n2nccc2NC(=O)CCOc2ccccc2)CC1` it is 695 cells. Next, `COc1ccc(C)cc1NC(=O)CCC(=O)Nc1ccc2nc(N3CCN(C)CC3)cc(C)c2c1`: 699 cells.

As for `CCN(CC)c1ccc(NC(=O)CCc2nnc3ccc(N4CCCC4)nn23)c(C)c1`, the cell count was found to be 843 cells. The figure for `CCCOc1ccccc1C(=O)N(Cc1ccc(C)o1)C1CCS(=O)(=O)C1` (stereo not given) is 720 cells; for `CCOC(=O)C(NC(=O)c1ccccc1)(OCc1ccccc1)C(F)(F)F` (stereo not given) it is 630 cells; for `O=C1CSC(c2cn(-c3ccccc3)nc2-c2ccccc2)N1Cc1ccco1` (stereo not given) it is 671 cells. As for `Nc1nc(-c2ccccc2)c(N=Nc2ccccc2Cl)s1`, the cell count amounted to 462 cells. Compound `CCCCn1c(=O)[nH]c(=O)c2c1nc(-c1ccc(-c3ccccc3)cc1)n2C` gave a cell count of 817 cells. The figure for `CC(=O)Nc1ccc(-c2csc(NC(=O)Cc3ccccc3F)n2)cc1` is 791 cells; for `CCc1ccc(NC(=O)C(C)OC(=O)c2ccc(N3CCCC3)c([N+](=O)[O-])c2)cc1` (stereo not given) it is 674 cells; for `O=C(Nc1ccc([N+](=O)[O-])cn1)c1cc(-c2cccc(Br)c2)nc2ccccc12` it is 648 cells. For the compound `Cn1nc(C(F)(F)F)c(-c2cccc(C(F)(F)F)c2)c1NC(=O)Nc1ccc(F)cc1`, the cell count came out at 744 cells.

The compound `Cc1cc(Cl)n2c(nc3ccccc32)c1C#N` showed a cell count of 163 cells. Next, `CCOc1ccc(C(=O)NC(C(=O)NCCc2ccc(S(N)(=O)=O)cc2)C(C)C)cc1` (stereo not given): 56 cells; `COc1ccc(C(=O)c2cc([N+](=O)[O-])ccc2N2CCOCC2)cc1`: 73 cells; `CC(C)(C)c1ccc(-c2nnc(SCC(=O)Nc3sc4c(c3C#N)CCCC4)o2)cc1`: 651 cells. On to `CC1(OC(=O)CCc2ccccc2)C(=O)C=C2C=C(c3ccc(C#N)cc3)N(CCc3c[nH]c4ccccc34)C=C2C1=O` (stereo not given), for which the cell count worked out at 772 cells. Next, `O=C(NC(=S)Nc1ccccn1)c1ccc(-c2ccccc2)cc1`: 884 cells; `CCOc1ccc(CCNC(=O)CSc2cc(=O)n(C)c3ccccc23)cc1OCC`: 597 cells. Next, `CCc1nn2c(N3CCOCC3)cc(C)nc2c1-c1ccc(F)cc1`: 729 cells.

In turn, `COc1ccc(CNC(=O)C2CCCN(C(=O)Nc3ccccc3OC)C2)cc1` (stereo not given) came in with a cell count of 730 cells. The figure for `Cc1[nH]n(-c2ccccc2)c(=O)c1N=Nc1ccc(C(=O)O)cc1` is 793 cells; for `N/C(=N/O)c1nc(N2CCCC2)nc(N(c2ccccc2)c2ccccc2)n1` it is 598 cells; for `Cc1ccc(C)c(-n2c3nc(=O)[nH]c(=O)c-3cc3cc([N+](=O)[O-])ccc32)c1` it is 101 cells.

As to `COc1ccc(-c2nc(NC(=O)Cn3ccc(C(F)(F)F)n3)sc2C)cc1`, the cell count came out at 759 cells. The compound `Oc1c(/C=C/C=C/C=Nc2ccccc2)sc(=S)n1Cc1ccccc1` yielded a cell count of 650 cells. `COc1cc2c(cc1NC(=O)CSc1nc3ccc(C)cc3[nH]1)oc1ccccc12` displayed a cell count of 648 cells. The figure for `CC(C)Oc1ccccc1/C=N/Nc1ccccc1[N+](=O)[O-]` is 607 cells.

`CN(C)S(=O)(=O)c1ccc(C(=O)Nc2nnc(SCc3ccccc3)s2)cc1` yielded a cell count of 144 cells. As for `COc1cc(C(=O)N2CCN(c3cccc(C)c3C)CC2)cc(OC)c1OC`, the cell count turned out to be 232 cells. Compound `CCOC(=O)c1c(C)[nH]c(C(=O)N/N=C/c2ccc(Br)cc2)c1C` displayed a cell count of 72 cells. In turn, `O=C(c1nn2c(C(F)(F)F)cc(-c3cccs3)nc2c1Br)N1CCCc2ccccc21` displayed a cell count of 651 cells. Next, `CC1=C(/C=N/Nc2ccc([N+](=O)[O-])cc2[N+](=O)[O-])C(C)(C)CCC1`: 651 cells.

In the case of `N#Cc1c(NC(=O)/C=C/c2ccco2)sc2c1CCCC2`, the cell count worked out at 51 cells. The figure for `Cc1ccc(C(=O)N2CCN(S(=O)(=O)N3CCCCC3)CC2)cc1` is 56 cells. Next, `COc1ccc(C)cc1NC(=O)C(Sc1nnc(Nc2cc(C)ccc2OC)s1)c1ccccc1` (stereo not given): 660 cells; `COc1ccc(C2=NOC(C(=O)NCc3ccc(F)cc3)C2)cc1OC` (stereo not given): 276 cells. Regarding `COc1cccc(C(=O)NC2CCCc3c2cnn3-c2cc(C)cc(C)c2)c1` (stereo not given), the cell count worked out at 712 cells. Next, `C=CCOc1ccc(/C=N/NC(=O)c2cc3c(OC)cc(OC)cc3[nH]2)cc1`: 829 cells; `O=C(OCCN1C(=O)c2cccc3c(N4CCOCC4)ccc(c23)C1=O)c1ccc(Cl)cc1`: 173 cells. Next, `COc1ccc(CC(=O)Nc2oc(-c3ccccc3)c(-c3ccccc3)c2C#N)cc1OC`: 768 cells; `CCc1cc2c(=O)c(-c3nc4ccccc4n3C)c(C)oc2c(CN2CCOCC2)c1O`: 724 cells; `CCN(CC)S(=O)(=O)c1cc(NC(=O)C(C)OC(=O)c2[nH]c(C)c(C(C)=O)c2C)ccc1C` (stereo not given): 544 cells. Next, `CCOc1cc(Br)c(CC(=O)NC2CCCCCC2)cc1OCC`: 804 cells. Take `Cc1coc2cc3oc(=O)cc(C)c3cc12`: the cell count was found to be 661 cells.

Take `CCCCn1c(SCC(=O)Nc2cc(C(F)(F)F)cc(C(F)(F)F)c2)nnc1C(CC)N(C)C` (stereo not given): the cell count worked out at 608 cells. Next, `COc1ccc(CCN2C(=O)CC(N3CCOCC3)C2=O)cc1OC` (stereo not given): 716 cells; `Cc1ccc(C(C(=O)NC2CCCCC2)N(C(=O)c2csnn2)C2CCCC2)o1` (stereo not given): 746 cells; `CCN1/C(=C/C=C/c2oc3ccc(-c4ccccc4)cc3[n+]2CC)Oc2ccc(-c3ccccc3)cc21`: 557 cells. The compound `Cc1c(C(=O)OCc2ccccc2)[nH]c2c1C(=O)CC(c1ccco1)C2` (stereo not given) gave a cell count of 229 cells. Next, `Cc1c(Cc2ccccc2)sc(/N=C/c2ccc3ccccc3c2)c1C(N)=O`: 288 cells; `COc1ccccc1Nc1nnc(SCC(=O)Nc2nc(-c3ccc(F)cc3)cs2)s1`: 704 cells. `CCCCNC(=O)C1CCN(C(=O)Nc2ccc(C)cc2)CC1` yielded a cell count of 730 cells. The figure for `CCOc1ccc(C(=O)OCC(=O)Nc2cc(C)on2)cc1OCC` is 768 cells; for `C=C(C)C(=O)N1CC2(CC(c3cccc(NC(=O)/C=C\C=C/C)c3)=NO2)C[C@H]1C(N)=O` (stereo not given in full) it is 762 cells; for `O=C(Cc1coc2ccc3ccccc3c12)NC1CCCc2ccccc21` (stereo not given) it is 610 cells.

As to `Cc1ccc(OCC(=O)NCc2ccc3c(c2)OCO3)c([N+](=O)[O-])n1`, the cell count is 695 cells. In the case of `Cc1ccc(NC(=O)CCCc2c[nH]c3ccccc23)nc1`, the cell count was 843 cells.

`CN(C)S(=O)(=O)c1ccc(N2CCCC2)c(C(=O)Nc2nc(-c3ccc(F)cc3)cs2)c1` showed a cell count of 280 cells.
